Laboratory results from the supplement of paper PMC10126150.
Values marked as one replicate rest on one cluster of the flow cell; about a third of the high ones do not repeat.

Tested on: ATP
Assay: switch fluorescence ratio, 500 uM ATP over buffer (Cy3 cluster intensity, sum of 5 cycles each) (fold (ratio)); higher = stronger signal-on switching upon ATP binding; sequences stand for … in TCGTCGGCAGCGTCAGATGTGTATAAGAGACAGTTTTTTTTTTTTTTTTTTTTTTTTT…TC
Details: aptamer strand: ATP DNA aptamer (quencher-CACCTGGGGGAGTATTGCGGAGGAAGG + anchor), 100 nM annealed; ATP concentration: 500 uM; one replicate
How it was run: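 For every switch-domain sequence, the fluorescence ratio is the mean of per-cluster values, each being summed target-cycle Cy3 intensity over summed buffer-cycle Cy3 intensity. Clusters outside 100-1000 RFU were excluded. On a modified Illumina MiSeq flow-cell, the Cy3-labelled switching-strand clusters were annealed to 100 nM quencher-labelled ATP aptamer, imaged in selection buffer and then after 15 min with 500 uM ATP at 22 °C. Five such cycles were run, with NaOH stripping and re-annealing between them.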
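Also: ATP exposure 15 min at 22 °C before imaging.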

**Q.** With ATGATTTCGC as the sequence, how does the switch fluorescence ratio read?
**A.** 0.997

**Q.** For ATGATTTGAT, which switch fluorescence ratio is on record?
**A.** 0.978

**Q.** With ATGCAAAAA as the sequence, how does the switch fluorescence ratio read?
**A.** 1.01

**Q.** For ATGCAAATTA, which switch fluorescence ratio is on record?
**A.** 1.02

**Q.** For ATGCAACGTA, which switch fluorescence ratio is on record?
**A.** 1.05

**Q.** With ATGCATAGGT as the sequence, how does the switch fluorescence ratio read?
**A.** 1.02

**Q.** Which switch fluorescence ratio does the source give for ATGCATTCAA here?
**A.** 0.994

**Q.** How did the switch fluorescence ratio turn out when ATGCATTGGG was run?
**A.** 0.971

**Q.** For ATGCCAAAAA, which switch fluorescence ratio is on record?
**A.** 1

**Q.** ATGCCATAGC was tested. Which switch fluorescence ratio did it give?
**A.** 0.964

**Q.** How did the switch fluorescence ratio turn out when ATGCCATCGT was run?
**A.** 0.954

**Q.** Which switch fluorescence ratio does the source give for ATGCCCCGCA here?
**A.** 1.02

**Q.** ATGCCCTTT was tested. Which switch fluorescence ratio did it give?
**A.** 0.985

**Q.** With ATGCCGAAGC as the sequence, how does the switch fluorescence ratio read?
**A.** 1.1

**Q.** ATGCCGGCA was tested. Which switch fluorescence ratio did it give?
**A.** 1.04

**Q.** For ATGCCTTAG, which switch fluorescence ratio is on record?
**A.** 0.986

**Q.** Which switch fluorescence ratio does the source give for ATGCGAACT here?
**A.** 1

**Q.** With ATGCGAGGGA as the sequence, how does the switch fluorescence ratio read?
**A.** 1.05

**Q.** Which switch fluorescence ratio does the source give for ATGCGATGT here?
**A.** 0.99

**Q.** How did the switch fluorescence ratio turn out when ATGCGCATCA was run?
**A.** 0.965

**Q.** ATGCGGCGGC was tested. Which switch fluorescence ratio did it give?
**A.** 1.01

**Q.** Which switch fluorescence ratio does the source give for ATGCGGGCAC here?
**A.** 1.02

**Q.** How did the switch fluorescence ratio turn out when ATGCGGGGTA was run?
**A.** 1.01

**Q.** Which switch fluorescence ratio does the source give for ATGCGTACAT here?
**A.** 1.02

**Q.** How did the switch fluorescence ratio turn out when ATGCGTGAAA was run?
**A.** 0.977

**Q.** Which switch fluorescence ratio does the source give for ATGCGTGATG here?
**A.** 1.02

**Q.** Which switch fluorescence ratio does the source give for ATGCTACACT here?
**A.** 1.04

**Q.** ATGCTACCGC was tested. Which switch fluorescence ratio did it give?
**A.** 1.07

**Q.** ATGCTAGCCT was tested. Which switch fluorescence ratio did it give?
**A.** 1.08

**Q.** With ATGCTATATA as the sequence, how does the switch fluorescence ratio read?
**A.** 1.04

**Q.** How did the switch fluorescence ratio turn out when ATGCTGCACC was run?
**A.** 1.05

**Q.** For ATGCTGTACG, which switch fluorescence ratio is on record?
**A.** 0.987

**Q.** Which switch fluorescence ratio does the source give for ATGCTTGGCG here?
**A.** 1.01

**Q.** With ATGCTTGGGA as the sequence, how does the switch fluorescence ratio read?
**A.** 1.01

**Q.** Which switch fluorescence ratio does the source give for ATGCTTGGTT here?
**A.** 1

**Q.** For ATGGAAGCGT, which switch fluorescence ratio is on record?
**A.** 1.01

**Q.** ATGGACCAGC was tested. Which switch fluorescence ratio did it give?
**A.** 1.04

**Q.** How did the switch fluorescence ratio turn out when ATGGACCGTC was run?
**A.** 1.02

**Q.** How did the switch fluorescence ratio turn out when ATGGACGGA was run?
**A.** 1.14

**Q.** With ATGGAGCTGT as the sequence, how does the switch fluorescence ratio read?
**A.** 1.09

**Q.** How did the switch fluorescence ratio turn out when ATGGATAACG was run?
**A.** 0.959

**Q.** Which switch fluorescence ratio does the source give for ATGGATAGC here?
**A.** 0.995

**Q.** How did the switch fluorescence ratio turn out when ATGGATGGC was run?
**A.** 0.967

**Q.** ATGGCGCATT was tested. Which switch fluorescence ratio did it give?
**A.** 1.03

**Q.** With ATGGCTAGGT as the sequence, how does the switch fluorescence ratio read?
**A.** 0.999

**Q.** For ATGGCTCAAC, which switch fluorescence ratio is on record?
**A.** 1.02

**Q.** ATGGGAAA was tested. Which switch fluorescence ratio did it give?
**A.** 1.01

**Q.** For ATGGGATACC, which switch fluorescence ratio is on record?
**A.** 0.991

**Q.** Which switch fluorescence ratio does the source give for ATGGGATTAC here?
**A.** 1.04

**Q.** How did the switch fluorescence ratio turn out when ATGGGCAGCG was run?
**A.** 0.953

**Q.** How did the switch fluorescence ratio turn out when ATGGGGCCGG was run?
**A.** 0.97

**Q.** For ATGGGGTGCC, which switch fluorescence ratio is on record?
**A.** 1.01

**Q.** ATGGGTAAGT was tested. Which switch fluorescence ratio did it give?
**A.** 1

**Q.** With ATGGGTTCGA as the sequence, how does the switch fluorescence ratio read?
**A.** 0.983

**Q.** ATGGGTTCTT was tested. Which switch fluorescence ratio did it give?
**A.** 0.982

**Q.** How did the switch fluorescence ratio turn out when ATGGTGGAAG was run?
**A.** 1.41

**Q.** For ATGGTGGGAA, which switch fluorescence ratio is on record?
**A.** 0.954

**Q.** With ATGGTTATAA as the sequence, how does the switch fluorescence ratio read?
**A.** 0.971

**Q.** For ATGGTTATGG, which switch fluorescence ratio is on record?
**A.** 1

**Q.** ATGGTTCTAA was tested. Which switch fluorescence ratio did it give?
**A.** 0.989

**Q.** With ATGTAAAGGC as the sequence, how does the switch fluorescence ratio read?
**A.** 0.995

**Q.** Which switch fluorescence ratio does the source give for ATGTACGAAC here?
**A.** 1.35

**Q.** ATGTACTATA was tested. Which switch fluorescence ratio did it give?
**A.** 1.08

**Q.** ATGTATCTGC was tested. Which switch fluorescence ratio did it give?
**A.** 0.917

**Q.** For ATGTATTAGC, which switch fluorescence ratio is on record?
**A.** 0.983

**Q.** For ATGTATTGA, which switch fluorescence ratio is on record?
**A.** 1.06

**Q.** With ATGTCACTTA as the sequence, how does the switch fluorescence ratio read?
**A.** 1.07

**Q.** For ATGTCGGA, which switch fluorescence ratio is on record?
**A.** 1.03

**Q.** Which switch fluorescence ratio does the source give for ATGTCGGCGG here?
**A.** 0.974

**Q.** Which switch fluorescence ratio does the source give for ATGTCTAGGA here?
**A.** 1.02

**Q.** ATGTCTGATC was tested. Which switch fluorescence ratio did it give?
**A.** 1.01

**Q.** With ATGTCTGCCG as the sequence, how does the switch fluorescence ratio read?
**A.** 1.07

**Q.** How did the switch fluorescence ratio turn out when ATGTCTGGTG was run?
**A.** 1.04

**Q.** How did the switch fluorescence ratio turn out when ATGTCTTAGT was run?
**A.** 0.992

**Q.** For ATGTGAGGTG, which switch fluorescence ratio is on record?
**A.** 1.02

**Q.** For ATGTGCAAAC, which switch fluorescence ratio is on record?
**A.** 1.25

**Q.** How did the switch fluorescence ratio turn out when ATGTGCAGAG was run?
**A.** 1.03

**Q.** For ATGTGCCCAG, which switch fluorescence ratio is on record?
**A.** 1.02

**Q.** How did the switch fluorescence ratio turn out when ATGTGCGAAT was run?
**A.** 1.04

**Q.** ATGTGGCCGT was tested. Which switch fluorescence ratio did it give?
**A.** 0.977

**Q.** Which switch fluorescence ratio does the source give for ATGTGGTGAA here?
**A.** 1.04

**Q.** For ATGTGTAAGG, which switch fluorescence ratio is on record?
**A.** 1.03

**Q.** ATGTGTATGT was tested. Which switch fluorescence ratio did it give?
**A.** 0.998

**Q.** For ATGTGTCGGA, which switch fluorescence ratio is on record?
**A.** 0.98

**Q.** For ATGTGTGTCT, which switch fluorescence ratio is on record?
**A.** 0.986

**Q.** With ATGTGTTCTT as the sequence, how does the switch fluorescence ratio read?
**A.** 0.989

**Q.** How did the switch fluorescence ratio turn out when ATGTTAATTC was run?
**A.** 1

**Q.** Which switch fluorescence ratio does the source give for ATGTTATTAT here?
**A.** 1.06

**Q.** ATGTTATTC was tested. Which switch fluorescence ratio did it give?
**A.** 1.01

**Q.** For ATGTTCGCAT, which switch fluorescence ratio is on record?
**A.** 1.02

**Q.** ATGTTGAAAT was tested. Which switch fluorescence ratio did it give?
**A.** 0.992

**Q.** Which switch fluorescence ratio does the source give for ATGTTGCTCA here?
**A.** 1

**Q.** Which switch fluorescence ratio does the source give for ATGTTGGTGG here?
**A.** 0.968

**Q.** How did the switch fluorescence ratio turn out when ATGTTGTGAA was run?
**A.** 0.999

**Q.** ATGTTGTTAG was tested. Which switch fluorescence ratio did it give?
**A.** 1.02

**Q.** ATGTTTAAAC was tested. Which switch fluorescence ratio did it give?
**A.** 1.01

**Q.** With ATGTTTAGG as the sequence, how does the switch fluorescence ratio read?
**A.** 1.13

**Q.** For ATGTTTCACT, which switch fluorescence ratio is on record?
**A.** 0.959

**Q.** With ATGTTTGACG as the sequence, how does the switch fluorescence ratio read?
**A.** 1.15

**Q.** For ATTAAACCTT, which switch fluorescence ratio is on record?
**A.** 1.1

**Q.** How did the switch fluorescence ratio turn out when ATTAAATCCA was run?
**A.** 0.992
